“Also recorded” adds a separate entry of the source. At least one peptide structure holds a part that was inferred or is arguable (an end, a ring closure or a residue). Some compounds share one wording; it may come from a single statement. Residues, ends and D or L forms follow the SMILES beside them. No end group written: not given here.
How the values were obtained:
flavoprotein EpiD = biological target: T1, flavoprotein EpiD (Staphylococcus epidermidis, UniProt P30197); test: EpiD enzyme assay, oxidative decarboxylation of single peptides (reversed phase chromatography, ES-MS); type: biochemical, Staphylococcus epidermis; set-up: key to Reaction with EpiD: +: reaction with EpiD; -: no reaction with EpiD occurred, this indicates that using the given assay conditions, no reaction product was detected; details: for Reaction with EpiD: single peptide determinations, 0.5-1 h at 37° C., pH 8.0, 3 mM dithiothreitol; for substrate of EpiD / reaction with EpiD (in words): single peptides
T1 construct: made in house; host or cells: E. coli K38 (pGP1-2, pT7-5epiD)
From the text: For the determination of the minimal size of the substrate, synthetic peptides with increasingly larger deletions of the amino terminus were used (Table 1). Reaction products were identified by their increasing hydrophobicity, increased absorption at 260 nm in 0.1% trifluoroacetic acid/H2 O/acetonitrile (FIGS. 19A and 19B), and the mass decrease of 46 Da as compared with the unmodified peptides. […] For a further study of the substrate specificity of EpiD, the heptapeptide SFNSYCC (SEQ ID NO: 2) was used. The serine and cysteine residues of the peptide SFNSYCC (SEQ ID NO: 2) form the COOH-terminal bicyclus of mature epidermin, and the possibility could not be excluded that amino acid exchanges in this peptide have an influence on the reaction with EpiD.
The method of the invention, which provides for the oxidative decarboxylation of a peptide, can be carried out in vitro under the following conditions, although it will be clear to those of ordinary skill in the art that the parameters given herein for carrying out the enzymatic reaction may be varied. The enzymatic reaction can be carried out at a temperature of 37° C. in 20 mMTris/HCl buffer (pH 8.0) containing 3 mM dithiothreitol, 1-2 μg of EpiD (the concentration of which is determined according to the method of Bradford, Anal. Biochem. 72:248-254 (1976)), and 10-50 μg of peptide, in a total volume of 1 ml. The enzymatic reaction is carried out for between 0.5 and 1 h.
Purification of EpiD and Enzyme Assay--EpiD was purified as described previously using E. coli expression plasmid pT7-5apiD (Kupke, T. et al, J. Bacteriol. 174:5354-5361 (1992)). The concentration of the EpiD solution was determined according to Bradford (Bradford, M. M., Anal. Biochem. 72:248-254 (1976)); the concentrations of the precursor peptide solutions were estimated by the absorbance at 205 nm using an extinction coefficient of 31 for a protein solution of 1 mg/ml (Janson, J. C., & Ryden, L., Methods Enzymol. 193:441-455 (1990)); the synthetic peptic substrates were weighed out. The enzyme was assayed for 0.5-1 h at 37° C. in 20 mM Tris/HCl buffer (pH 8.0) containing 3 mM dithiothreitol, 1-2 μg of EpiD, and 10-25 μg of precursor peptide or 50 μg of synthetic peptide in a total volume of 1 ml. The reaction mixture was then separated by reversed phase chromatography using a μRPC C2/C18 SC 2.1/10 column (Pharmacia Biotech Inc.). Peptides were eluted with a linear gradient of 0-50% acetronitrile, 0.1% trifluoroacetic acid in 3.8 ml with a flow rate of 200 μl/min. The absorbance was measured simultaneously at 214, 260, and 280 nm. The peptides were collected by the peak fractionation method, dried with a vacuum concentrator, stored at -70° C., dissolved in 30% acetonitrile, and analyzed by ES-MS.

EpiD = EpiD (Staphylococcus epidermidis, UniProt P30197); test: Kinetic studies of EpiD with peptide libraries using mass spectrometry; type: biochemical, Staphylococcus epidermis; set-up: made in house; host or cells: E. coli K38 (pGP1-2, pT7-5epiD); details: library SFNSYXC 0.4 mg/ml, 0.7 μg of EpiD, 23° C., spectra after 0-221 min
Sequence of EpiD (P30197 whole entry): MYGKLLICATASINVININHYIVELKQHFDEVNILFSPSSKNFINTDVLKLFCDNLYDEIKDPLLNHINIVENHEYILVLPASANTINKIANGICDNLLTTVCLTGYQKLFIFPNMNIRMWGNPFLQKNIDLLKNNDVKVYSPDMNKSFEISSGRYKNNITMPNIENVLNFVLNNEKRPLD

T1 sequence (P30197 whole entry): as above

| Molecule | Reaction with EpiD (flavoprotein EpiD) | substrate of EpiD / reaction with EpiD (in words) (flavoprotein EpiD) | reaction rate with EpiD (EpiD) |
| --- | --- | --- | --- |
| NC(=O)C[C@H](NC(=O)[C@H](Cc1ccccc1)NC(=O)[C@@H](N)CO)C(=O)N[C@@H](CO)C(=O)N[C@@H](Cc1ccc(O)cc1)C(=O)N[C@@H](CS)C(=O)N[C@@H](CS)C(=O)O [SFNSYCC] (H-SFNSYCC-OH) | + |  |  |
| C[C@H](N)C(=O)N[C@@H](CCCCN)C(=O)N[C@H](C(=O)NCC(=O)N[C@@H](CO)C(=O)N[C@@H](Cc1ccccc1)C(=O)N[C@@H](CC(N)=O)C(=O)N[C@@H](CO)C(=O)N[C@@H](Cc1ccc(O)cc1)C(=O)N[C@@H](CS)C(=O)N[C@@H](CS)C(=O)O)[C@@H](C)O (H-AKTGSFNSYCC-OH) | + |  |  |
| NC(=O)C[C@H](NC(=O)[C@H](Cc1ccc(O)cc1)NC(=O)[C@@H](N)CO)C(=O)N[C@@H](CO)C(=O)N[C@@H](Cc1ccc(O)cc1)C(=O)N[C@@H](CS)C(=O)N[C@@H](CS)C(=O)O [SYNSYCC] (H-SYNSYCC-OH) | + |  |  |
| C[C@H](NC(=O)[C@H](CC(N)=O)NC(=O)[C@H](Cc1ccccc1)NC(=O)[C@@H](N)CO)C(=O)N[C@@H](Cc1ccc(O)cc1)C(=O)N[C@@H](CS)C(=O)N[C@@H](CS)C(=O)O [SFNAYCC] (H-SFNAYCC-OH) | + |  |  |
| N[C@@H](Cc1ccc(O)cc1)C(=O)N[C@@H](CS)C(=O)N[C@@H](CS)C(=O)O [YCC] (H-Tyr-Cys-Cys-OH) | - |  |  |
| SFNSYC [SFNSYC] | - | not substrates of EpiD |  |
| C[C@H](NC(=O)[C@H](Cc1ccccc1)NC(=O)[C@@H](N)CO)C(=O)N[C@@H](CO)C(=O)N[C@@H](Cc1ccc(O)cc1)C(=O)N[C@@H](CS)C(=O)N[C@@H](CS)C(=O)O [SFASYCC] (H-SFASYCC-OH) | + |  |  |
| SFNSYTC [SFNSYTC] | + |  | lower rate |
| CC[C@H](C)[C@H](NC(=O)[C@H](CS)NC(=O)[C@H](CCC(=O)O)NC(=O)[C@H](CO)NC(=O)[C@@H](NC(=O)[C@H](CC(C)C)NC(=O)[C@@H](N)[C@@H](C)O)[C@@H](C)O)C(=O)N[C@@H](CS)C(=O)O [reference compound] (H-TLTSECIC-OH) | - | not a substrate of EpiD |  |
| NC(=O)C[C@H](N)C(=O)N[C@@H](CO)C(=O)N[C@@H](Cc1ccc(O)cc1)C(=O)N[C@@H](CS)C(=O)N[C@@H](CS)C(=O)O [NSYCC] (H-NSYCC-OH) | + |  |  |
| C[C@H](NC(=O)[C@H](CO)NC(=O)[C@H](CC(N)=O)NC(=O)[C@H](Cc1ccccc1)NC(=O)[C@@H](N)CO)C(=O)N[C@@H](CS)C(=O)N[C@@H](CS)C(=O)O [SFNSACC] (H-SFNSACC-OH) | - |  |  |
| SFNSYSC [SFNSYSC] | + |  |  |
| N[C@@H](CO)C(=O)N[C@@H](Cc1ccc(O)cc1)C(=O)N[C@@H](CS)C(=O)N[C@@H](CS)C(=O)O [SYCC] (H-SYCC-OH) | + | weak reaction; also recorded: is a substrate of EpiD |  |
| NC(=O)C[C@H](NC(=O)[C@H](Cc1ccccc1)NC(=O)[C@@H](N)CO)C(=O)N[C@@H](CO)C(=O)N[C@@H](Cc1c[nH]c2ccccc12)C(=O)N[C@@H](CS)C(=O)N[C@@H](CS)C(=O)O [SFNSWCC] (H-SFNSWCC-OH) | + |  |  |
| SFNSYCM [SFNSYCM] | - | not substrates of EpiD |  |
| CCSC[C@H](NC(=O)[C@H](CS)NC(=O)[C@H](Cc1ccc(O)cc1)NC(=O)[C@H](CO)NC(=O)[C@H](CC(N)=O)NC(=O)[C@H](Cc1ccccc1)NC(=O)[C@@H](N)CO)C(=O)O [SFNSYCC(Et)] (H-SFNSYCC(Et)-OH) | - | not substrates of EpiD; also recorded: not a substrate of EpiD |  |
| NC(=O)C[C@H](NC(=O)[C@H](Cc1ccccc1)NC(=O)[C@@H](N)CO)C(=O)N[C@@H](CO)C(=O)N[C@@H](Cc1ccccc1)C(=O)N[C@@H](CS)C(=O)N[C@@H](CS)C(=O)O [SFNSFCC] (H-SFNSFCC-OH) | + |  |  |
| NC(=O)C[C@H](NC(=O)[C@@H](N)Cc1ccccc1)C(=O)N[C@@H](CO)C(=O)N[C@@H](Cc1ccc(O)cc1)C(=O)N[C@@H](CS)C(=O)N[C@@H](CS)C(=O)O [FNSYCC] (H-FNSYCC-OH) | + |  |  |
| NC(=O)C[C@H](NC(=O)[C@H](Cc1c[nH]c2ccccc12)NC(=O)[C@@H](N)CO)C(=O)N[C@@H](CO)C(=O)N[C@@H](Cc1ccc(O)cc1)C(=O)N[C@@H](CS)C(=O)N[C@@H](CS)C(=O)O [SWNSYCC] (H-SWNSYCC-OH) | + |  |  |
| SFNSYCS [SFNSYCS] | - | not substrates of EpiD |  |
| NC(=O)C[C@H](NC(=O)[C@H](Cc1ccccc1)NC(=O)[C@@H](N)CO)C(=O)N[C@@H](Cc1ccc(O)cc1)C(=O)N[C@@H](Cc1ccc(O)cc1)C(=O)N[C@@H](CS)C(=O)N[C@@H](CS)C(=O)O [SFNYYCC] (H-SFNYYCC-OH) | + |  |  |
| C[C@H](N)C(=O)N[C@@H](Cc1ccccc1)C(=O)N[C@@H](CC(N)=O)C(=O)N[C@@H](CO)C(=O)N[C@@H](Cc1ccc(O)cc1)C(=O)N[C@@H](CS)C(=O)N[C@@H](CS)C(=O)O [AFNSYCC] (H-AFNSYCC-OH) | + |  |  |
| C[C@H](NC(=O)[C@@H](N)CO)C(=O)N[C@@H](CC(N)=O)C(=O)N[C@@H](CO)C(=O)N[C@@H](Cc1ccc(O)cc1)C(=O)N[C@@H](CS)C(=O)N[C@@H](CS)C(=O)O [SANSYCC] (H-SANSYCC-OH) | + |  |  |

From US5962253A, “Oxidative decarboxylation of peptides catalyzed by flavoprotein EpiD” (Boehringer Ingelheim International GmbH, priority 1996, dated 1999)
